Results published in patent US20180092975A1 (CELGENE, published 2018).

Experiments:
[1] = target: T1, human PD-1 expressed on cells (human, UniProt Q15116 part only); experiment: cell-based or functional assay
[2] = target: T2, cyno PD-1 expressed on cells (cynomolgus monkey, UniProt B0LAJ3 25-288); experiment: flow cytometry on CHO cells expressing cyno PD-1, detection with anti-human IgG Fc, PE GeoMFI
T2 construct: also called Cyno PD-1 expressed on CHO cells; PD-1 on cynomolgus T cells

[3] = target: T1, human PD-1 expressed on cells; experiment: flow cytometry on CHO cells expressing human PD-1, detection with anti-human IgG Fc, PE GeoMFI
T1 sequence (Q15116 25-198 limits assumed): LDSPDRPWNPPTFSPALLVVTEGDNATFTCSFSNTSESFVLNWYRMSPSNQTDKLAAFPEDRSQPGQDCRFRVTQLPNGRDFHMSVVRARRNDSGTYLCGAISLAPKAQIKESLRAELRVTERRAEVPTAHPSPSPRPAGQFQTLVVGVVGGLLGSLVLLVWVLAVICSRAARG

T2 sequence (B0LAJ3 entry or part of it limits assumed): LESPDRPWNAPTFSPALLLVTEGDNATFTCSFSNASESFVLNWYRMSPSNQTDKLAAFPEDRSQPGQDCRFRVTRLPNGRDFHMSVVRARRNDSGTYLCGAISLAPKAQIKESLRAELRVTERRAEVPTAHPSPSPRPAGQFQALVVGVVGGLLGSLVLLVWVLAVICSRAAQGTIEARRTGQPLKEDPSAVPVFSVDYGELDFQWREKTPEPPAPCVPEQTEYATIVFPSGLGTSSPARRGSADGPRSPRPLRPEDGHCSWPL

B1: PD1AB-6-K3 (antibody, human IgG1, kappa)
heavy: EVQLVQSGAEVKKPGATVKISCKASGFNIKDTYMHWVQQAPGKGLEWMGRIDPANGDRKYDPKFQGRVTITADTSTDTAYMELSSLRSEDTAVYYCARSGPVYYYGSSYVMDYWGQGTTVTVSS[gap - human IgG1 constant region with changes]
light: DIVMTQSPDSLAVSLGERATINCKSGQSVLYSSNQKNFLAWYQQKPGQPPKLLIYWASTRESGVPDRFSGSGSGTDFTLTISSLQAEDVAVYYCHQYLYSWTFGQGTKLEIKRTVAAPSVFIFPPSDEQLKSGTASVVCLLNNFYPREAKVQWKVDNALQSGNSQESVTEQDSKDSTYSLSSTLTLSKADYEKHKVYACEVTHQGLSSPVTKSFNRGEC
- average EC50 for IFN-γ inhibition, normal donor whole blood (n=4) [1]: 6.18 nM

B2: PD1AB-6-IgG1 (antibody)
heavy: EVQLVQSGAEVKKPGATVKISCKASGFNIKDTYMHWVQQAPGKGLEWMGRIDPANGDRKYDPKFQGRVTITADTSTDTAYMELSSLRSEDTAVYYCARSGPVYYYGSSYVMDYWGQGTTVTVSS[gap - human IgG1 constant region]
light: DIVMTQSPDSLAVSLGERATINCKSGQSVLYSSNQKNFLAWYQQKPGQPPKLLIYWASTRESGVPDRFSGSGSGTDFTLTISSLQAEDVAVYYCHQYLYSWTFGQGTKLEIKRTVAAPSVFIFPPSDEQLKSGTASVVCLLNNFYPREAKVQWKVDNALQSGNSQESVTEQDSKDSTYSLSSTLTLSKADYEKHKVYACEVTHQGLSSPVTKSFNRGEC
notes: Full IgG1 kappa antibody; also called IgG1_PD1AB-6; IgG1-PD1AB-6
- LogEC50 [2]: 0.806 log10 of nM (axis: Primary Ab conc (nM), log scale)
- LogEC50 [3]: 0.431 log10 of nM (axis: Primary Ab conc (nM), log scale)
